# Experimental data taken from PMC4336329 (PLoS ONE, 2015).
# In all, about 310,000 compounds went through this assay and about 2,200 (0.71%) showed an effect of 50% or more. The effect is printed as a negative number. The list shows a part of the results. Where a SMILES comes first, the peptide text is derived from it. The star is where a group is joined. Boc = CC(C)(C)OC(=O)*
# Target: human ether-à-go-go-related gene (hERG) potassium channel (human, UniProt Q12809)
# Experiment: primary screen, population patch clamp on CHO cells stably expressing hERG
# human ether-à-go-go-related gene (hERG) potassium channel, sequence (Q12809 whole entry, looked up): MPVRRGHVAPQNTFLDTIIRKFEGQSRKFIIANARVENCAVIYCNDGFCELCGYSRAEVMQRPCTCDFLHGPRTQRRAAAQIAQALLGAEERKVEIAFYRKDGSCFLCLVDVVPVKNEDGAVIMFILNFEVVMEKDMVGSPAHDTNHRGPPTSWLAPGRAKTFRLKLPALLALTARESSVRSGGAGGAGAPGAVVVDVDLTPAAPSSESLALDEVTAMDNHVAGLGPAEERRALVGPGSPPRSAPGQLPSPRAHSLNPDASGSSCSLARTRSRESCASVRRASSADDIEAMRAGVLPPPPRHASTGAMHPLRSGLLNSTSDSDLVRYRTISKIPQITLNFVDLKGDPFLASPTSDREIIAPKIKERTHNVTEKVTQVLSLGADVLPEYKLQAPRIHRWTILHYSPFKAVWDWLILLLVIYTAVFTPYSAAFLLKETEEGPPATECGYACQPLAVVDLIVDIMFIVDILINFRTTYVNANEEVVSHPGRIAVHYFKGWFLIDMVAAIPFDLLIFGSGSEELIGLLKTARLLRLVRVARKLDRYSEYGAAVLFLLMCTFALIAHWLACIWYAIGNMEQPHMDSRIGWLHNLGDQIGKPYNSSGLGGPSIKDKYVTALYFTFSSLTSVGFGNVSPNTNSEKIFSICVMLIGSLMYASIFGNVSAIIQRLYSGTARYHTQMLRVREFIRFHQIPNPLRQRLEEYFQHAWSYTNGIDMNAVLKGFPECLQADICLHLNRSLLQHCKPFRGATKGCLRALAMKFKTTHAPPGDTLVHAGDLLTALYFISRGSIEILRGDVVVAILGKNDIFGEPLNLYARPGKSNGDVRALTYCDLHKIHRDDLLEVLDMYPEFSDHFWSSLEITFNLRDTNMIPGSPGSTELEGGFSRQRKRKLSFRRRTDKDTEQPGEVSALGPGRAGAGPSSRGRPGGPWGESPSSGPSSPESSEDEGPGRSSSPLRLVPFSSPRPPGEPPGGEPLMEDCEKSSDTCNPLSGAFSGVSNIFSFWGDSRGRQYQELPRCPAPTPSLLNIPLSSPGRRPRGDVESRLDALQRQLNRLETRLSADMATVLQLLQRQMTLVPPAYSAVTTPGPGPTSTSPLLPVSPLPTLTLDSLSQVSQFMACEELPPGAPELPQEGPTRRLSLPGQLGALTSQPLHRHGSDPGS
row,SMILES,"hERG current change (%, negative = inhibition) at 1uM [%]"
1,CC(=O)Nc1cc(C(=O)N2CCN(C)CC2)ccc1S(=O)(=O)c1ccc(C)cc1,3.13
2,C=CCn1c(SCc2cccc(C#N)c2)nnc1-c1ccccc1O,-6.97
3,CN(CC(=O)NC1CC(C)(C)NC(C)(C)C1)S(=O)(=O)c1cc(Cl)ccc1Cl,7
4,O=C(NCc1ccccc1F)C(=O)NCC1CCCN1S(=O)(=O)c1ccccc1 (centres unmarked),0.406
5,CC1CN(CC(O)COCc2ccc3c(c2)OCO3)CC(C)O1.Cl (centres unmarked),0.791
6,Cc1cc(/C(N)=N/OC(=O)Nc2ccc(Cl)cc2)no1,10.7
7,CC(C)Oc1ccc(CNC(=O)c2ccc3nc(N4CCOCC4)sc3c2)cc1,7.18
8,CCOCN(C(=O)Cn1c(CO)nc2ccccc21)c1c(C)cccc1CC,7.43
9,CCOC(=O)/C(C#N)=C(/C)c1ccc(OC)cc1,3.37
10,CC(=O)NNC(=O)c1ccncc1,3.03
11,CC(CN1CCCCC1)C(=O)NN (centres unmarked),25.4
12,CCCC/C([O-])=N\S(=O)(=O)c1ccc(N=NN(C)C)cc1.[K+],3.2
13,Cc1ccccc1N1C(=O)CC(N2CCC(C(N)=O)CC2)C1=O (centres unmarked),5.5
14,COc1ccc(OC)c(S(=O)(=O)Nc2ccc3oc4c(c3c2)C(=O)CCC4)c1,-4.31
15,Cc1ccc(C(=O)CSc2nsc(C)c2C#N)cc1,2.63
16,Cn1ncc(Br)c1C(=O)Nc1ccc(Br)cn1,16.3
17,COc1ccc(OCC(=O)Nc2nnc(-c3ccco3)s2)cc1,12.6
18,Cc1cc(C)cc(NC(=O)CSc2nc(=O)n(CCCN3CCOCC3)c3c2CCCC3)c1,-7.23
19,O=C(O)c1ccc(-c2nc3scc(-c4ccccc4)c3c(=O)[nH]2)cc1,0.113
20,O=C(CNCc1ccccc1)Nc1ccc(Oc2ccccc2)cc1,5.29
21,Cc1cc(C)cc(C(=O)NC(=S)Nc2ccc(Cc3ccncc3)cc2)c1,6.73
22,Cc1onc(-c2ccccc2)c1C(=O)Nc1nc2c(s1)C(=O)CC(C)(C)C2,13.3
23,O=C(N/N=C\c1ccc2c(c1)OCO2)c1ccc(Cn2cc(Br)c([N+](=O)[O-])n2)o1,3.84

row,SMILES,"hERG current change (%, negative = inhibition) at 1uM [%]"
1,CCOc1ccc2nc(SCC(=O)NCC3CCCO3)c(C#N)cc2c1 (centres unmarked),-0.201
2,N#CC(C(=S)Nc1ccccc1)c1nc2ccccc2[nH]1 (centres unmarked),10.8
3,N/C(=N\c1nc2ccccc2o1)NC(=O)C(Cc1ccccc1)N1C(=O)c2ccccc2C1=O (centres unmarked),16
4,Cc1ccc(/C=C/C(=O)N2CCN(S(=O)(=O)/C=C/c3ccccc3)CC2)o1,-0.528
5,Cc1cccc2sc(N(CCCN(C)C)C(=O)c3ccco3)nc12.Cl,-54.8
6,Cn1c(N2CCN(C(=O)Nc3ccc(C(F)(F)F)cc3)CC2)nc2ccccc21,-7.21
7,COc1ccc2c(c1OC)CN1CCc3cc4c(cc3C1C2)OCO4 (centres unmarked),17.1
8,Cc1c(C(=O)Nc2ccc(F)cc2)oc2ccc(S(=O)(=O)N3CC(C)CC(C)C3)cc12 (centres unmarked),15.1
9,CCc1ccc(NC(=O)COc2ccc(/C=C(/C#N)c3nc4ccccc4[nH]3)cc2OC)cc1,8.14
10,CCOc1cc(CN2CCCC(CO)(Cc3ccc(F)cc3F)C2)ccc1OC (centres unmarked),-10.8
11,O=C(Nc1ccccc1C(=O)N1CCN(c2ccccc2)CC1)c1ccco1,-1.01
12,CC(C)=N/N=C1/NC(=O)C(Cc2ccccc2)S1 (centres unmarked),19.7
13,Cc1ccc(-n2nnnc2SC(C)C(=O)NCC(=O)Nc2ccc(F)c(F)c2F)c(C)c1 (centres unmarked),9.56
14,O=C(CN(Cc1ccc2c(c1)OCO2)C(=O)c1cnsn1)NC1CCCC1,7.58
15,Cc1ccc(CSCCC(=O)NCCC2=CCCCC2)cc1,9.65
16,CCCCNC(=O)C1c2ccccc2Oc2ccccc21,9.99
17,CCOC(=O)c1c(CN(C)C)n(-c2ccc(C)cc2)c2cc(Br)c(O)cc12,-7.43
18,CSc1ccccc1C(=O)Nc1ncn[nH]1,14.9
19,COc1ccc(CCN2CC34C=CC(O3)C(C(=O)NCc3ccccc3Cl)C4C2=O)cc1OC (centres unmarked),9.83
20,Cc1ccc(SCC(=O)NC(C)(C)C)cc1,-12.8
21,C=CCn1c(SCC(=O)NCCc2ccccc2)nnc1C1CC1,-4.46
22,COc1ccc(NC(=O)Cn2nnc(C(=O)NCc3ccc4c(c3)OCO4)c2N)c(OC)c1,19.7
23,COc1ccc(OCCCC(=O)Nc2ncn[nH]2)cc1,7.46

row,SMILES,"hERG current change (%, negative = inhibition) at 1uM [%]"
1,COc1ccc2c(c1OC)C(=O)OC2Nc1ncc(Br)cc1Br (centres unmarked),7.93
2,O=C(COc1ccccc1)Nc1cccc2nsnc12,-22
3,Cc1cc(OC(C)C(=O)NCC2CCCO2)cc(C)c1Cl (centres unmarked),12
4,COCCCN(C(=S)Nc1cc(Cl)cc(Cl)c1)C(C)c1ccccn1 (centres unmarked),-5.66
5,S=C(c1ccc(-c2ccc(Cl)cc2)o1)N1CCCCC1,10.7
6,Cc1cnn(C(=S)NCC2CCCO2)c1 (centres unmarked),11.9
7,N#Cc1ccc(N2CCOCC2)nc1,1.37
8,COC(=O)c1ccc(NC(=O)C(=O)N2CCN(C(=S)Nc3cccc(OC)c3)CC2)cc1,7.75
9,COc1ccc(/C=C(/NC(=O)/C=C/c2ccccc2)C(=O)O)cc1,18.6
10,C=CCn1nnnc1SCC(=O)Nc1ccc(OC)cc1,10.9
11,CCn1c2ccccc2c2cc(NC(=O)c3cccc(OC)c3OC)ccc21,-5.03
12,COc1ccc(NC(=O)CSc2nc(C)cs2)cc1,6.79
13,COc1cccc(CN2CCC(C(=O)N3CCN(Cc4ccc5c(c4)OCO5)CC3)CC2)c1OC,-3.63
14,CC(C)CC(NC(=O)OC(C)(C)C)C(=O)NC(C(=O)NC(C)C(N)=O)C(C)C (stereo not drawn) (Boc-Leu-Val-Ala-NH2; configuration not given here),-2.73
15,Cc1cccc(NC(=S)NN2CCN(C)CC2)c1,-7.96
16,CS(=O)(=O)C1=NSC2=NC(=O)/C(=C\c3cccn3-c3ccc(Cl)cc3)C(=N)N21,11.5
17,CC(C)(C)C(=O)CN1C(=O)NC2(CCc3ccccc32)C1=O (centres unmarked),4.7
18,CCOC(=O)c1ccsc1NC(=O)c1ccco1,12.3
19,CN(CCOc1ccccc1)S(=O)(=O)c1ccc2oc3ccccc3c2c1,10.1
20,CCC(=O)Nc1cccc(-n2nnnc2SCC(=O)N(C(C)C)C(C)C)c1,-4.63
21,Cc1cccc(NC(=O)Nc2ccccn2)c1C,3.33
22,N#CC1=C(SCC(=O)Nc2ccccc2)NC(=O)CC1c1ccco1 (centres unmarked),8.13
23,O=C(NNC(=O)C12CC3CC(CC(C3)C1)C2)c1cnccn1,7.92

row,SMILES,"hERG current change (%, negative = inhibition) at 1uM [%]"
1,NS(=O)(=O)c1cc2c(cc1Cl)NC(C1CC3C=CC1C3)NS2(=O)=O (centres unmarked),15.4
2,Cc1cc(NS(=O)(=O)c2ccc(NC(=O)c3ccc([N+](=O)[O-])c(Cl)c3)cc2)no1,12.4
3,COc1ccc(NC(=O)C2Cc3ccccc3O/C2=N\O)cc1 (centres unmarked),11.2
4,CCCCc1nc2cc(C(=O)N3CCCC3)ccc2o1,7.18
5,Cc1ccc(C(=O)NNC2=Nc3cc([N+](=O)[O-])ccc3OC2)cc1,11.8
6,O=C(CCCOc1ccccc1)Nc1cccc(C(=O)O)c1,8.12
7,COC(=O)CSc1nccc(C)n1,8.39
8,Cc1cccc(CN2CCN(C(=S)Nc3ccccc3)CC2)c1,8.54
9,O=C(C1CCN(S(=O)(=O)c2cccc3cccnc23)CC1)N1CC=C(c2ccccc2)CC1,-1.02
10,CC(C)N(CC#CCC1(O)c2ccccc2-c2ccccc21)C(C)C.Cl,-12.4
11,COc1cc(/C=C(\NC(=O)c2cc(OC)c(OC)c(OC)c2)C(=O)NC(C(=O)O)c2ccccc2)cc(OC)c1OC (centres unmarked),12.8
12,N#Cc1ccc(S(=O)(=O)N2CCN(C(=O)[C@@H]3CCCN3C(=O)c3cccs3)CC2)cc1,-5.03
13,CCOc1ccc(NC(=O)CN(C)C(=O)c2cccnc2SC)cc1OCC,8.14
14,CCn1c(SCc2ccccc2)nnc1-c1ccc(S(=O)(=O)N2CCCCC2)cc1,-3.74
15,CC(C)C(=O)N(Cc1cc2ccccc2[nH]c1=O)C(C)(C)C,7.5
16,Cc1sc(NC(=O)CN2CCN(c3ccccn3)CC2)c(C#N)c1C,13.4
17,CCOc1ccc(NCC(=O)Nc2ccc(Cl)cc2C)cc1,5.84
18,Cc1ccc(-c2csc(NC(=O)CSC3=NCCS3)n2)cc1,16.6
19,O=c1cc(-c2ccccc2)nc2cc(-c3ccc(F)cc3)[nH]n12,14.9
20,COc1ccc(C=O)cc1CN1C(=O)c2ccccc2C1=O,11.3
